Here are results for 1 molecule from PubChem BioAssay AID2750 (The Scripps Research Institute Molecular Screening Center, 2010).

A number of entries come with more than one value. They are shown here; other results are not. There may be further records. Results that share an entry are repeats in other runs, samples, wells, individuals or studies. Records carry a tag for their origin. A, B and so on number the origins entry by entry.

In the assay the test system is DLD-1 KLF5 promoter-luciferase reporter, luminescence. Briefly: KLF5 promoter reporter inhibitors, late-stage follow-up, luminescence, DLD-1 cells, powder samples (AID 2750).

The term IC50 denotes the midpoint of a concentration-inhibition curve. A lower IC50 goes with higher potency. As to `COC(=O)c1ccc2nc(Nc3nc4ccc(F)cc4s3)sc2c1`, the IC50 is 357 nM [sample A] and 20.5 nM [sample B].
